According to the supplement of paper PMC4996465:
Viability of KB3-1 and Nalm-6 cells after 48 h of drug alone (CellTiter-Glo), 11 doses over about 4.5 log units. % of DMSO wells, lower = more cell loss; AC50 from the fitted curve, lower = more potent. No active / inactive call. Nalm-6 was screened in two runs. AC50 is listed only for well-fitted inhibitory curves. KB3-1 is a HeLa-derived carcinoma line, Nalm-6 a B-cell precursor leukaemia line.

Legend:
KB3-1 [1] = assay: viability (% of DMSO control); higher = more viable cells
Experimental: (§1)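 Eleven-dose screen of the NCATS MIPE 3 library on cells without co-treatment; CellTiter-Glo after 48 h, as % of DMSO wells.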

Nalm-6 = assay: as above
Experimental: as §1

KB3-1 [2] = assay: log AC50 of viability decrease (48 h) (log10 M); higher = less potent
Experimental: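 Eleven-dose screen of the NCATS MIPE 3 library on cells without co-treatment; CellTiter-Glo after 48 h. AC50 from the curve fit; only inhibitory curves of the better fit classes are listed.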

Structure (SMILES)	viability (KB3-1 [1]; 0.00078 µM)	viability (KB3-1 [1]; 0.00234 µM)	viability (KB3-1 [1]; 0.00702 µM)	viability (KB3-1 [1]; 0.0211 µM)	viability (KB3-1 [1]; 0.0632 µM)	viability (KB3-1 [1]; 0.19 µM)	viability (KB3-1 [1]; 0.569 µM)	viability (KB3-1 [1]; 1.71 µM)	viability (KB3-1 [1]; 5.12 µM)	viability (KB3-1 [1]; 15.4 µM)	viability (KB3-1 [1]; 46.1 µM)	viability (Nalm-6; run: 1, 0.00078 µM)	viability (Nalm-6; run: 1, 0.00234 µM)	viability (Nalm-6; run: 1, 0.00702 µM)	viability (Nalm-6; run: 1, 0.0211 µM)	viability (Nalm-6; run: 1, 0.0632 µM)	viability (Nalm-6; run: 1, 0.19 µM)	viability (Nalm-6; run: 1, 0.569 µM)	viability (Nalm-6; run: 1, 1.71 µM)	log AC50 of viability decrease (KB3-1 [2])	other results
COc1ccc(/C=C\c2cc(OC)c(OC)c(OC)c2)cc1O [Combretastatin A-4]	49.4%	31.9%	24.5%	25%	24.3%	24.9%	22.8%	22.5%	24.5%	25%	19.6%	23.8%	19.7%	14.9%	15.7%	19.5%	20.3%	16.7%	14.3%	-8.73	viability (Nalm-6; run: 1, 5.12 µM): 12.5%; viability (Nalm-6; run: 1, 15.4 µM): 6.43%; viability (Nalm-6; run: 1, 46.1 µM): 1.79%; viability (Nalm-6; run: 2, 0.00078 µM): 18.6%; viability (Nalm-6; run: 2, 0.00234 µM): 11%; viability (Nalm-6; run: 2, 0.00702 µM): 9.48%; viability (Nalm-6; run: 2, 0.0211 µM): 11.7%; viability (Nalm-6; run: 2, 0.0632 µM): 14%; viability (Nalm-6; run: 2, 0.19 µM): 11.6%; viability (Nalm-6; run: 2, 0.569 µM): 12.1%; viability (Nalm-6; run: 2, 1.71 µM): 10.3%; viability (Nalm-6; run: 2, 5.12 µM): 9.04%; viability (Nalm-6; run: 2, 15.4 µM): 4.39%; viability (Nalm-6; run: 2, 46.1 µM): 1.65%
COC1=CC2=C(C=C1OC)[C@H]3[C@@H](CO2)OC4=C(C=CC5=C4\C=C/C(C)(C)O5)C3=O [Deguelin]	99.1%	99%	94%	90.9%	81.2%	79.3%	75.1%	73.4%	71.3%	67.1%	39.2%	47.2%	92.1%	93.1%	91%	73.7%	62.8%	62.5%	66.7%	-5.38	viability (Nalm-6; run: 1, 5.12 µM): 69.7%; viability (Nalm-6; run: 1, 15.4 µM): 61.8%; viability (Nalm-6; run: 1, 46.1 µM): 13.1%; viability (Nalm-6; run: 2, 0.00078 µM): 96.4%; viability (Nalm-6; run: 2, 0.00234 µM): 106%; viability (Nalm-6; run: 2, 0.00702 µM): 98.6%; viability (Nalm-6; run: 2, 0.0211 µM): 97.6%; viability (Nalm-6; run: 2, 0.0632 µM): 86.4%; viability (Nalm-6; run: 2, 0.19 µM): 77.2%; viability (Nalm-6; run: 2, 0.569 µM): 69.1%; viability (Nalm-6; run: 2, 1.71 µM): 70.2%; viability (Nalm-6; run: 2, 5.12 µM): 77.3%; viability (Nalm-6; run: 2, 15.4 µM): 70.7%; viability (Nalm-6; run: 2, 46.1 µM): 7.39%
CC1=C(C)C2=C(S1)[N]3C(=NN=C3[C@H](CC(=O)OC(C)(C)C)/N=C2/C4=CC=C(Cl)C=C4)C [JQ1]	100%	103%	97%	97.5%	92.8%	84.9%	69.5%	61.9%	56.8%	53%	8.68%									-4.98	
COc1ccc(-c2c(-c3ccc(O)cc3O)n[nH]c2C)cc1 [PDHK RIKEN]	99.1%	105%	106%	98.6%	104%	102%	99.2%	101%	90.7%	84%	66.3%	72.3%	95.7%	99.5%	106%	106%	108%	104%	100%	-4.78	viability (Nalm-6; run: 1, 5.12 µM): 92.2%; viability (Nalm-6; run: 1, 15.4 µM): 82.4%; viability (Nalm-6; run: 1, 46.1 µM): 53.3%; viability (Nalm-6; run: 2, 0.00078 µM): 93.2%; viability (Nalm-6; run: 2, 0.00234 µM): 99.7%; viability (Nalm-6; run: 2, 0.00702 µM): 100%; viability (Nalm-6; run: 2, 0.0211 µM): 101%; viability (Nalm-6; run: 2, 0.0632 µM): 106%; viability (Nalm-6; run: 2, 0.19 µM): 104%; viability (Nalm-6; run: 2, 0.569 µM): 105%; viability (Nalm-6; run: 2, 1.71 µM): 97.1%; viability (Nalm-6; run: 2, 5.12 µM): 92.8%; viability (Nalm-6; run: 2, 15.4 µM): 93.9%; viability (Nalm-6; run: 2, 46.1 µM): 45%
Oc1cccc(-c2nc(N3CCOCC3)c3oc4ncccc4c3n2)c1 [PI-103]	103%	106%	100%	95%	78.8%	57.3%	47.6%	34.6%	41%	39.3%	36.5%									-7.03	
Cc1[nH]c2ccccc2c1CCNCc1ccc(/C=C/C(=O)NO)cc1 [Panobinostat]	108%	102%	86.7%	71.6%	42.8%	21.9%	15.8%	14.9%	15.6%	14.9%	11.7%									-7.53	
O=C(CCCCCCC(=O)Nc1ccccc1)NO [Vorinostat]																				-6.32	viability (KB3-1 [1]; 0.00156 µM): 103%; viability (KB3-1 [1]; 0.00468 µM): 103%; viability (KB3-1 [1]; 0.014 µM): 96.8%; viability (KB3-1 [1]; 0.0421 µM): 97.2%; viability (KB3-1 [1]; 0.126 µM): 88.7%; viability (KB3-1 [1]; 0.379 µM): 62.2%; viability (KB3-1 [1]; 1.14 µM): 41.1%; viability (KB3-1 [1]; 3.41 µM): 32%; viability (KB3-1 [1]; 10.2 µM): 21.8%; viability (KB3-1 [1]; 30.7 µM): 17.8%; viability (KB3-1 [1]; 92.2 µM): 15.7%
Cl.Oc1cn2c(n1)Nc1ccc(Cl)c(Cl)c1C2 [anagrelide]	91.5%	83.9%	70.4%	58.2%	50.8%	47.2%	54%	48.2%	48.7%	48.4%	41.4%	108%	110%	127%	112%	122%	116%	129%	123%	-8.18	viability (Nalm-6; run: 1, 5.12 µM): 116%; viability (Nalm-6; run: 1, 15.4 µM): 117%; viability (Nalm-6; run: 1, 46.1 µM): 61.8%; viability (Nalm-6; run: 2, 0.00078 µM): 106%; viability (Nalm-6; run: 2, 0.00234 µM): 113%; viability (Nalm-6; run: 2, 0.00702 µM): 112%; viability (Nalm-6; run: 2, 0.0211 µM): 109%; viability (Nalm-6; run: 2, 0.0632 µM): 114%; viability (Nalm-6; run: 2, 0.19 µM): 108%; viability (Nalm-6; run: 2, 0.569 µM): 114%; viability (Nalm-6; run: 2, 1.71 µM): 111%; viability (Nalm-6; run: 2, 5.12 µM): 99.1%; viability (Nalm-6; run: 2, 15.4 µM): 84%; viability (Nalm-6; run: 2, 46.1 µM): 96.5%
